According to US11178870B2 (priority 2017, dated 2021):

Key:
Format in all cases: in vivo
[1] = system: Botrytis cinerea; test: Test Example B: Gray mold on tomato; conditions: for Test B control value (gray mold on tomato): class of control value, Table 7; for Test B control value: Gray mold on tomato; for control value, Test B (gray mold on tomato): Table 7, Test B
[2] = system: Alternaia brassicicola; test: Test Example C: Alternaria sooty spot on cabbage; conditions: for Test C control value (Alternaria sooty spot on cabbage): class of control value, Table 7; for Test C control value: Alternaria sooty spot on cabbage; for control value, Test C (Alternaria sooty spot on cabbage): Table 7, Test C
[3] = system: Blumeria graminis f. sp. hordei; test: Test Example D: Powdery mildew on barley; conditions: for Test D control value (powdery mildew on barley): class of control value, Table 7; for Test D control value: Powdery mildew on barley; for control value, Test D (powdery mildew on barley): Table 7, Test D
[4] = system: Puccinia recondita; test: Test Example E: Brown rust on wheat; conditions: for Test E control value (brown rust on wheat): class of control value, Table 7; for Test E control value: Brown rust on wheat; for control value, Test E (brown rust on wheat): Table 7, Test E
[5] = system: Plasmopara viticola; test: Test Example G: Downy mildew on vine; conditions: for Test G control value (downy mildew on vine): 250 ppm spray, investigated 7 to 10 days after inoculation; for Test G control value (downy mildew on vine) / Test G control value: 2.5 ml/pot; for Test G control value: Downy mildew on vine, 250 ppm sprayed, 7 to 10 days after inoculation; for control value, Test G (downy mildew on vine): 250 ppm sprayed (2.5 ml/pot) before inoculation, assessed 7 to 10 days after inoculation

SMILES	Test B control value [1]	Test C control value [2]	Test D control value [3]	Test E control value [4]	Test G control value [5]	control value, Test B (gray mold on tomato) [1]	control value, Test C (Alternaria sooty spot on cabbage) [2]	control value, Test D (powdery mildew on barley) [3]	control value, Test E (brown rust on wheat) [4]	control value, Test G (downy mildew on vine) [5]	other results
O=c1ccc(-c2sc(Cl)cc2Br)c(-c2c(F)cccc2F)n1CC(F)F [Compound 421]	–	–	–	–	–	–	–	–	–	–	Test B control value (gray mold on tomato) [1]: H (H shows the control value more than 50%); Test C control value (Alternaria sooty spot on cabbage) [2]: H (H shows the control value more than 50%); Test D control value (powdery mildew on barley) [3]: H (H shows the control value more than 50%); Test E control value (brown rust on wheat) [4]: H (H shows the control value more than 50%); Test G control value (downy mildew on vine) [5]: L (L shows the control value of 50% or less)
CCn1c(-c2c(F)cc(F)cc2F)c(-n2cc(C)cn2)cc(Br)c1=O [Compound 101]	H (H shows the control value more than 50%)	H (H shows the control value more than 50%)	H (H shows the control value more than 50%)	H (H shows the control value more than 50%)	L (L shows the control value of 50% or less)	–	–	–	–	–	–
CCn1c(-c2c(F)cc(OC)cc2F)c(-c2cccnc2Cl)ccc1=O [Compound 79]	H (H shows the control value more than 50%)	H (H shows the control value more than 50%)	H (H shows the control value more than 50%)	H (H shows the control value more than 50%)	L (L shows the control value of 50% or less)	–	–	–	–	–	–
COc1ccc(-c2c(-n3cc(Cl)cn3)cc(Cl)c(=O)n2CC(F)F)c(Cl)c1 [Compound 239]	–	–	–	–	–	H (H shows the control value more than 50%)	H (H shows the control value more than 50%)	H (H shows the control value more than 50%)	H (H shows the control value more than 50%)	L (L shows the control value of 50% or less)	–
O=c1ccc(-c2cccnc2Cl)c(-c2c(F)cccc2F)n1CC(F)(F)F [Compound 58]	H (H shows the control value more than 50%)	L (L shows the control value of 50% or less)	H (H shows the control value more than 50%)	H (H shows the control value more than 50%)	L (L shows the control value of 50% or less)	–	–	–	–	–	–
CCn1c(-c2ccccc2OC)c(-n2cc(C)cn2)cc(Br)c1=O [Compound 247]	–	–	–	–	–	H (H shows the control value more than 50%)	L (L shows the control value of 50% or less)	L (L shows the control value of 50% or less)	L (L shows the control value of 50% or less)	L (L shows the control value of 50% or less)	–
CCn1c(-c2ccc(F)cc2Cl)c(-n2cc(F)cn2)cc(Br)c1=O [Compound 329]	–	–	–	–	–	H (H shows the control value more than 50%)	H (H shows the control value more than 50%)	L (L shows the control value of 50% or less)	L (L shows the control value of 50% or less)	L (L shows the control value of 50% or less)	–
CCn1c(-c2c(F)cc(F)cc2F)c(-n2nc(C)cc2C)ccc1=O [Compound 93]	H (H shows the control value more than 50%)	H (H shows the control value more than 50%)	H (H shows the control value more than 50%)	L (L shows the control value of 50% or less)	L (L shows the control value of 50% or less)	–	–	–	–	–	–
CCn1c(-c2ccc(OC)cc2Br)c(-n2cc(Cl)cn2)cc(Cl)c1=O [Compound 167]	H (H shows the control value more than 50%)	H (H shows the control value more than 50%)	L (L shows the control value of 50% or less)	H (H shows the control value more than 50%)	H (H shows the control value more than 50%)	–	–	–	–	–	–
CCn1c(-c2c(F)cccc2F)c(-c2sccc2C)ccc1=O [Compound 359]	–	–	–	–	–	H (H shows the control value more than 50%)	H (H shows the control value more than 50%)	H (H shows the control value more than 50%)	H (H shows the control value more than 50%)	H (H shows the control value more than 50%)	–
COc1ccc(-c2c(-n3cc(Cl)cn3)cc(Cl)c(=O)n2CC(F)F)c(F)c1 [Compound 213]	–	–	–	–	–	H (H shows the control value more than 50%)	H (H shows the control value more than 50%)	H (H shows the control value more than 50%)	H (H shows the control value more than 50%)	L (L shows the control value of 50% or less)	–
CCn1c(-c2c(F)cccc2F)c(-c2ccsc2Cl)cc(Cl)c1=O [Compound 298]	–	–	–	–	–	H (H shows the control value more than 50%)	H (H shows the control value more than 50%)	L (L shows the control value of 50% or less)	H (H shows the control value more than 50%)	L (L shows the control value of 50% or less)	–
O=c1ccc(-c2ccsc2)c(-c2c(F)cccc2F)n1CC(F)F [Compound 493]	–	–	–	–	–	–	–	–	–	–	Test B control value (gray mold on tomato) [1]: H (H shows the control value more than 50%); Test C control value (Alternaria sooty spot on cabbage) [2]: H (H shows the control value more than 50%); Test D control value (powdery mildew on barley) [3]: H (H shows the control value more than 50%); Test E control value (brown rust on wheat) [4]: H (H shows the control value more than 50%); Test G control value (downy mildew on vine) [5]: H (H shows the control value more than 50%)
Cn1c(-c2c(F)cccc2F)c(-c2cccnc2Cl)cc(Br)c1=O [Compound 106]	H (H shows the control value more than 50%)	H (H shows the control value more than 50%)	L (L shows the control value of 50% or less)	H (H shows the control value more than 50%)	H (H shows the control value more than 50%)	–	–	–	–	–	–
CCn1c(-c2ccc(C#N)cc2F)c(-n2cc(Cl)cn2)cc(Cl)c1=O [Compound 279]	–	–	–	–	–	H (H shows the control value more than 50%)	H (H shows the control value more than 50%)	L (L shows the control value of 50% or less)	H (H shows the control value more than 50%)	L (L shows the control value of 50% or less)	–
CCn1c(-c2c(F)cccc2Br)c(-n2cc(F)cn2)cc(Br)c1=O [Compound 392]	–	–	–	–	–	–	–	–	–	–	Test B control value (gray mold on tomato) [1]: H (H shows the control value more than 50%); Test C control value (Alternaria sooty spot on cabbage) [2]: H (H shows the control value more than 50%); Test D control value (powdery mildew on barley) [3]: L (L shows the control value of 50% or less); Test E control value (brown rust on wheat) [4]: L (L shows the control value of 50% or less); Test G control value (downy mildew on vine) [5]: L (L shows the control value of 50% or less)
